# According to publication PMC12040169 (PLOS Biology, 2025):
# The list shows a part of the results.
# Tested on: T1, C. trachomatis L2/434/Bu expressing GFP (CTL2-GFP)
# T1 construct: L2/434/Bu GFP intracellular growth in HeLa cells
# Parameters: species or system HeLa; C. trachomatis total inclusion area by high-content imaging, normalised to DMSO
# Details: total inclusion area; 28.5 h, 10 µM; inhibitor
# Outline: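 High-content imaging followed the bulk GFP/resorufin measurement: fixed, Hoechst-stained cells were scored for GFP inclusions and host nuclei per well. Total inclusion area and count served as growth proxies, nuclei number as the viability proxy. MIC calculation matched the bulk assay.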
row,SMILES,% of control remaining
1,N#Cc1ccc(CNC(=O)c2ccc3[nH]ccc3c2)cc1 [CBK149078],97.4955
2,CC(C)(C)OC(=O)N1CCC(c2nc3ccc(F)cc3cc2N)CC1 [CBK284658],34.4276
3,COC(=O)c1sccc1NS(=O)(=O)c1ccc(C(F)(F)F)cc1 [CBK200041],82.5343
4,Cc1[nH]nc(Nc2cccc(C(=O)O)c2)c1[N+](=O)[O-] [CBK262725],114.174
5,CCOC(=O)c1c(C#N)c(SCc2ccc(Cl)cc2)nc2c1CN(CC)CC2 [CBK021337],92.5836
6,N#CCCCN1CCC(Oc2nccnc2OCc2cccc(Cl)c2)CC1 [CBK153642],103.147
7,O=C(O)C1CSC(c2cccnc2)N1 (stereo not shown) [CBK260910],110.331
8,CC(C)Nc1cc(OCc2cccnc2)ncn1 [CBK115883],103.257
9,CC(=O)Nc1nc(NC(C)=O)n2c(-c3ccccc3)nnc2n1 [CBK026649],81.5044
10,CC(=O)N(C)[C@H]1CC[C@]2(CC1)CNC(=O)c1ccccc1O2 [CBK281682],93.8172
11,CC(=O)c1ccc(NC(=O)NC[C@H]2C[C@@H]3CC[N@]2C[C@@H]3CN2CCN(C)CC2)cc1 [CBK288768],72.4405
12,COC(=O)c1ccccc1NC(=O)NCc1cc(C)n(C)n1 [CBK266887C],81.6156
13,CC(O)CNc1nccnc1-c1ccccc1 (stereo not shown) [CBK089257],75.0363
14,C/C(=N\NC(=O)c1ccccc1O)c1ccc(NC(=O)c2ccc(C)cc2)cc1 [CBK261251],106.846
15,Cn1ccnc1C1(O)CC2CCC(C1)N2C(=O)c1cccc(Cl)c1 (stereo not shown) [CBK284091],74.837
16,CC(=O)N1CCCc2cc(C(O)CN3CCCC(C)(C)C3)ccc21 (stereo not shown) [CBK282143],90.2453
17,C=CCNC(CC(=O)Nc1ccc(C)c(Cl)c1)C(=O)O (stereo not shown) [CBK266892],92.9906
18,CC(C)[C@@]1(C)SC(N[C@H]2C[C@H]3C[C@@H]2C[C@@H]3O)=NC1=O [CBK138400],95.3744
19,CC1(c2ccccc2)CC(=O)N(CCC(=O)O)C1=O (stereo not shown) [CBK287091],96.63
20,O=C1CCCN1CCCNc1nccnc1-c1cccnc1 [CBK089246],101.022
21,CC(Cn1cccn1)NCc1cn(C)c2cc(F)ccc12 (stereo not shown) [CBK282220],104.382

row,SMILES,% of control remaining
1,Cc1cccc(C)c1N1CCN(CC(O)COc2ccc3c(C)cc(=O)oc3c2)CC1 (stereo not shown) [CBK270084],94.9669
2,COc1cc(OC)c(NC(=O)CSc2ccccn2)cc1Cl [CBK267303],76.1429
3,Cc1c(C)n(Cc2ccco2)c2ncnc(NC(C)C(=O)O)c12 (stereo not shown) [CBK307561],78.5275
4,COc1ccc(Nc2cc(Cl)ccc2C(=O)N2CCN(c3ncccn3)CC2)cn1 [CBK107334],94.1333
5,CCCC/C=C/c1nccnc1N(C)Cc1ccccc1 [CBK037412],115.682
6,CSc1nc(C(=O)NC2CCCN(c3ncccn3)C2)cs1 (stereo not shown) [CBK307198],75.0272
7,CC(C)N1CCc2c(sc3nc(SCc4ccc(Cl)cc4)n(Cc4ccccc4)c(=O)c23)C1 [CBK263745],75.1311
8,Cc1ccc2c(CC(=O)N3CCC(C(=O)O)CC3)coc2c1 [CBK286711],92.6645
9,Cc1nnc(SCc2cc(=O)[nH]c(N3CCN(Cc4ccccc4)CC3)n2)s1 [CBK268837],111.486
10,Fc1ccc(-c2ccc(CNCc3ccncc3)o2)cc1 [CBK270158C],99.2189
11,COC(=O)C(Nc1cccc(Cl)c1)(c1cc(OC)c(O)c(OC)c1)C(F)(F)F (stereo not shown) [CBK009591],96.6364
12,N#CCCN(Cc1cccnc1)C(=O)Cc1noc2ccccc12 [CBK304001],44.1842
13,O=C(Nc1ccc2ncccc2c1)c1ccoc1 [CBK159823],100.57
14,Cn1cc([C@H]2C[C@@H](O)[C@@H](CO)O2)c(=O)n(C)c1=O [CBK201272],122.998
15,FC(F)(F)c1ccc(CN2CCCC3(C2)NCCc2c3[nH]c3ccccc23)cc1 (stereo not shown) [CBK040095],82.0432
16,CCOC(=O)c1c(C)n(-c2ccccc2)c2ccc(O)c(CN(C)C)c12 [CBK261593C],58.1395
17,COc1ccc(C(C)C)cc1-c1cc2ncccc2nc1N [CBK081202],100.713
18,O=C(c1ccc(CO)o1)N1CCn2cc(C(F)(F)F)nc2C1 [CBK283914],86.8015
19,Cc1cc(=O)nc(N/C(N)=N/c2cccc([N+](=O)[O-])c2)[nH]1 [CBK264857],82.1445
20,O=C(NCc1ccc2c(c1)OCO2)N1CCCC(CO)C1 (stereo not shown) [CBK156034],120.036
21,Cc1csc(N2CCC(Nc3cc(CO)ccc3Cl)CC2)n1 [CBK306440],108.233

row,SMILES,% of control remaining
1,COCCNc1nccnc1-c1cccc(C(=O)N2CCN(C)CC2)c1 [CBK036864],121.725
2,CSCCCNC(=O)N1CCN(c2cc(C(F)(F)F)ccn2)CC1 [CBK156433],82.262
3,COc1ccc(-c2nc(NC(=O)C3CC3)cnc2-c2cccc(C(F)(F)F)c2)cc1 [CBK036852],126.569
4,Cc1nc2cc(C(=O)O)ccc2[nH]1 [CBK220035],89.3214
5,CCOC(=O)Cn1c(CN2CCC(Cc3ccccc3)CC2)nc2c1c(=O)n(C)c(=O)n2C [CBK269454],110.612
6,Oc1ccc(Nc2nc3nonc3nc2Nc2ccccc2)cc1 [CBK263551],66.8035
7,c1ccc(CCN2CCCN(c3ccnc(OCCN4CCOCC4)n3)CC2)cc1 [CBK083810],89.1524
8,COC(=O)[C@@H]1Cc2ncn(C(C)C)c2CN1C(=O)c1ccc(F)cc1 [CBK288990],113.12
9,CCc1nccn1CCCNC(=O)Nc1cc(-c2cccnc2)nn1C [CBK306657],92.0369
10,CC(=O)Nc1cccc(-c2cc(N3CCN(CC(=O)N(C)c4ccccc4)CC3)ncn2)c1 [CBK091134],163.024
11,O=C(O)CSc1c[nH]c2ccccc12 [CBK026377],84.7488
12,CC(c1cccc(F)c1)n1cc(C(=O)NCCc2ccco2)nn1 (stereo not shown) [CBK283582],96.9797
13,CC(NC(=O)Cc1cccc(F)c1)c1nnc2n1CCCCC2 (stereo not shown) [CBK305975],46.3967
14,COCCn1c(CO)nnc1[C@H]1C[C@@H](NC(=O)c2ncc(F)cc2F)C1 [CBK307458],42.3609
15,Cc1cc(C)n(CCNCc2cc(-c3ccccc3)c[nH]c2=O)n1 [CBK284770],41.4967
16,O=C(CCCn1ccnc1)Nc1ccc(N2CCCCC2)c(F)c1 [CBK281385],80.8776
17,Cc1cn([C@H]2C[C@@H](O)[C@@H](CN)O2)c(=O)[nH]c1=O [CBK201315],100.392
18,Oc1c(CN2CCN(c3ccc(F)cc3)CC2)cc(Br)c2cccnc12 [CBK268051],24.5219
19,COCCOC(=O)N1CCC(C(=O)NC(c2ccccc2)c2ccsc2)CC1 (stereo not shown) [CBK060155],83.7384
20,CCOc1ccc(NC(=O)N(CCOC)Cc2cnn(C)c2)cc1Cl [CBK306697],85.5288
21,OCc1cccc(-c2cncc(Nc3ccccc3)n2)c1 [CBK065576],110.099

row,SMILES,% of control remaining
1,CN(C)CCN(Cc1ccccc1)Cc1c(F)cccc1Cl [CBK261867],99.1467
2,N#Cc1cccc(NC(=O)c2cccs2)c1 [CBK066855],93.0919
3,O=C(NCc1ccc2c(c1)OCO2)c1cncc(-c2ccc(C(=O)N3CCOCC3)cc2)c1 [CBK158614],74.4501
4,CCc1nc2c(OCc3ccc(S(C)(=O)=O)cc3)cccn2c1N(CCOC)C(C)=O [CBK147846],98.0417
5,O=C(c1ccc2ccccc2n1)N1CCC(F)CC1 [CBK200276],102.42
6,Cc1noc(C)c1S(=O)(=O)Nc1ccc(C(=O)Nc2ccc(F)cc2)cc1 [CBK034410],82.5896
7,Cc1cc2c(o1)c1cnn(CC(=O)N3CCCC(C)C3)c(=O)c1n2C (stereo not shown) [CBK284218],102.978
8,Cc1[nH]nc(C(F)(F)F)c1Cl [CBK025387],71.7838
9,CCCCN(C(=O)CC1SC(NC2CCCCCC2)=NC1=O)c1ccccc1 (stereo not shown) [CBK067392],78.7389
10,Cc1c(C(C)NCC2CCCC2O)cnn1-c1ccc(C#N)cc1 (stereo not shown) [CBK304019],75.3728
11,Cc1nn(CC(=O)N2CCC(C)CC2)c(=O)c2cc3sccc3n12 [CBK284083],52.1284
12,Cc1ccc(CS(=O)(=O)N2CCN(CCO)C(C)C2)c(F)c1 (stereo not shown) [CBK304702],97.9017
13,N#Cc1c(NC(=O)CSc2nnc3c(n2)[nH]c2ccccc23)sc2c1CCCC2 [CBK262417],77.5916
14,O=C(Cn1nnc(-c2ccc(CN3CCOCC3)cc2)n1)Nc1ccc(Br)cc1 [CBK127364],95.6888
15,O=C1CCc2cccc(OCCO)c21 [CBK001442],82.7884
16,CC(C)NC(=O)[C@H]1O[C@H](CCN2CCN(c3ccccn3)CC2)CC[C@@H]1O [CBK288722],105.007
17,O=C(O)c1ccc(NS(=O)(=O)c2ccc(Br)c3ccccc23)cc1O [CBK299772],95.653
18,CC(C)CNC(=O)C(=O)NCCc1ccc(F)cc1 [CBK264903],108.131
19,O=C(Cc1ccsc1)NCCn1nc(-c2cccs2)ccc1=O [CBK283842],83.3883
